From the supplement of paper PMC10338343
± gives the standard deviation. Whole data set: some 6,600 sequences, median “pre-steady-state target cleavage rate” near 0.07, cut for the highest 2% near 0.72. Only a part is listed here, and it is no random draw.

Each sequence was assayed on MIWI (PIWIL1) piRISC loaded with Kctd7 piRNA (30 nt) (assay: pre-steady-state target cleavage rate (min^-1); MIWI and MILI are mouse PIWI proteins and EfPiwi is from a freshwater sponge; tags in brackets are library labels; higher = faster piRNA-guided slicing of the target). Settings: guide: Kctd7 piRNA 5'p-UGUUAAUCUCUCAGAGAAGGUGACAGUGAU; auxiliary factor: 500 nM mouse GTSF1.
Outline: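 Three pooled Cleave-'n-Seq trials supplied the data, with k3 capped at 0.0001 min^-1. In each, […] transcribed, DNA-blocked target RNA library and 1 nM active affinity-purified piRISC with one synthetic guide reacted in HEPES–potassium acetate buffer at 33 °C for 0–8 or 0–960 min, with or without 500 nM GTSF1 partner protein. Uncleaved targets were sequenced and normalised to depth and to weakly complementary targets. A burst-and-steady-state fit provided the pre-steady-state cleavage rate.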
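Also: 1 nM active piRISC with 0.1 nM target library at 33 °C single turnover.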

Sequence	pre-steady-state target cleavage rate
UAGUGAGUCACCAUCACUGAGAGAUUAACA	0.518 ± 0.048
AUCACUGUCUCCUUCUCUGAGAGAUAAACA	0.275 ± 0.04
UAGAGUGUCACCUUCUCUGAGUGAUUAACA	0.0315 ± 0.0059
UAGUGACACACCUUCUCUGAGAGAUUAACU [g2:g22:cont:t1U]	0.3 ± 0.037
UAGUCUGUCACCUACUCUGAGACAUUAACA	0.0747 ± 0.0095
UAGUGACAGUGCUUCUCUGAUAGAUUAACA	0.0192 ± 0.0036
UAGUGACAGUGGUUCUCUGGGAGAUUAACA	< 0.0001
UAGUGUGUCUCCAUCUCUGAGAGAUUAACA	0.176 ± 0.014
UAGUCUGUCACCUUCUGAGAGAGAUUAAGA	0.0176 ± 0.0069
UAGACUGUCACCAUCUCUCAGAGAUUAACA	0.041 ± 0.0063
AUCACUGUCACCUAGUCUGAGAGAUUUUGA	0.0964 ± 0.023
UAGUGACAGUCCUUCUCUGACAGAAUAACA	< 0.0001
UACACUGUCACCAUCACUGAGAGAUUAACA	0.372 ± 0.023
UAGUGAGUCACCGUCUCUGAGAGAUUAACA	0.469 ± 0.049
UAGUCUGUCAGCUUCUCUGUGAGAUUAACA	0.246 ± 0.013
UAGUGAGUCACCUUCUCUGAGUGUUUAACA	0.0333 ± 0.0054
UAGACACACACCUUCUCUGAGAGAUUAACA	0.502 ± 0.033
UAGUGUGUCACCUUCUCUGAGAGUAAAACA	0.194 ± 0.038
UUCACUGACACCAUCUCUGAGAGAUUAACA	0.543 ± 0.027
UAGUGAGUCACCUUCUCUGAGAGAUAAAGA	0.0438 ± 0.017
UAGACUGACACCUUCACUGAGAGAUUAACA	0.371 ± 0.022
UAGUGUGUCACCUUGUCUGAGAGUUUAACA	0.0501 ± 0.01
UUCACUGUCACCUUCUCUGAGACGAUUAACA	0.0506 ± 0.012
UAGACUGUGACCUUCACUGAGAGAUUAACA	0.328 ± 0.029

Sequence	pre-steady-state target cleavage rate
UACACUGACACGUUCUCUGAGAGAUUAACA	0.483 ± 0.032
UUCACUGUCACCUUCUCUUAGAGAUUAACA	0.33 ± 0.015
UUCACUGUCACCUUCUCUGACAGAUAAACA	0.0294 ± 0.0076
UUCACUGUCACCUUCUCUGAGUGUUUAACA	0.0344 ± 0.0057
UAGUGAGUCAGCUUCUCUGAGAGUUUAACA	0.212 ± 0.036
UAGUCUGUCACCUUCUCUGAGAUGAUUAACA	0.0171 ± 0.0058
UAGUGACACACCUUCUCUGAGAGAUUGACA	0.287 ± 0.041
UUCAACUGUCACCUUCUCUGAGAGAUUAACA	0.733 ± 0.039
UAGUGACUCACCUCUCUGAGAGAUUAACA	0.0246 ± 0.0051
UUCACUGUCACCUACUCUGAGAGAUUAUCA	0.326 ± 0.045
UACACUGUCACCAUCUGUGAGAGAUUAACA	0.378 ± 0.032
UAGACUGUCACCUUCUCUGAGAGAUUAGCA	0.271 ± 0.03
UUCUGUGUCACCUUCUCUGAGAGAUAUUGA	0.0674 ± 0.017
UAGUGAGUCACCUUCUCUGAGAGCUUAACA	0.247 ± 0.032
AUCACUGUCACGUUCUCUGAGAGAUAAACA	0.311 ± 0.036
UAGUGACACACCUUCUCUGAGAAAUUAACA	0.235 ± 0.038
UAGUGACAGAGGUUCUCUGAGAGAUUAUGA	< 0.0001
UUCAUCUGUCACCUUCUCUGAGAGAUUAACA	0.706 ± 0.03
UUCACUGUCAGCUUGUCUGAGAGAUUAACA	0.658 ± 0.03
UAGUGACACACCUUCUCAGAGUGAUUAACA	0.00558 ± 0.0037
UAGUGUGUCCCCUUCUCUGAGAGAUUAACA	0.642 ± 0.042
UAGUGUGUGACGUUCUCUGAGAGAUUAACA	0.398 ± 0.025
UAGUGAGUCACCUUCUGUGAGAGAAUAACA	0.109 ± 0.015
UAGACUGCUCACCUUCUCUGAGAGAUUAACA	0.717 ± 0.047

Sequence	pre-steady-state target cleavage rate
UACACUGUGUCCUUCUCUGAGAGAUAUUGA	0.00581 ± 0.0037
UAGUGUGUCACCUUCCUGAGAGAUUAACA	0.0693 ± 0.019
UACACUGUCACGAUCUCUGAGAGAUUAACA	0.496 ± 0.04
UAGUGACAGUGGAACUCUGAGUCUAAUUGA [g10:g16:cont:t1A]	0.0444 ± 0.023
UAGACUCGUCACCUUCUCUGAGAGAUUAACA	0.687 ± 0.041
UAGACUGUCACCUUCUCAGAGAGAUUAAGA	0.101 ± 0.014
UUCACUGUGACCUUCUCUGAGAGAUUUACA	0.214 ± 0.026
UAGUGUGUGACCUUCUCUGAGUGAUUAACA	0.0123 ± 0.004
UACACUGUCACCUUCUCAGAGAGAUAUUGA	0.0336 ± 0.016
UAGUGACUCACCUUCUGUGAGUGAUUAACA	0.0083 ± 0.0037
UACUCUGUCACCUUCUCUGAGACAUUAACA	0.309 ± 0.025
UACACUGUCACCUUCCUCUGAGAGAUUAACA	0.375 ± 0.024
AUCUCUGUCACCUUCUCUGAGACAUUAACA	0.292 ± 0.022
AUCACUGUCACCUUCUCUGGAGAUUAACA	0.294 ± 0.022
AUCAGUGUCACCUUCUCUGACAGAUUAACA	0.468 ± 0.028
UAGACUGUCAGCUUCUCUGAGAGAUAAACA	0.168 ± 0.022
UAGUGACAGACCUUCUCAGAGACAUUAACA	0.00533 ± 0.0032
UAGUGACACAGGUUCUCUGAGAGAUUAAGA	0.00292 ± 0.0026
UUCACUGUCACCUUCUCUGAGAGAUUCAACA	0.561 ± 0.08
AUCAGUGUCACCUUCUCUGAGAGAUUAACA	0.633 ± 0.028
UAGUGUGACACCUUCACUGAGAGAUUAACA	0.36 ± 0.018
UUCACUGUCACCUUCUCUGAGAGUUAAACA	0.183 ± 0.03
UAGUGACAGUCCUUGUCUGAGACAUUAACA	0.00922 ± 0.0033
UAGUGACAGUGGUUCUGUGAGUGAUUAACA	< 0.0001

Sequence	pre-steady-state target cleavage rate
UAGUGUGUCACCUUCUCUGAGCAGAUUAACA	0.00638 ± 0.0046
UAGUGGGUCACCUUCUCUGAGAGAUUAACA	0.564 ± 0.027
UAGUCUGUGACCUUCUCUGACAGAUUAACA	0.112 ± 0.013
UACACUGUCACCUGUCUCUGAGAGAUUAACA	0.583 ± 0.032
UAGUGAGUCACCAUCUCUGAGAGAUUUUGA	0.0112 ± 0.0056
UAGUGACUCACCUUCUCUGAGAGUAUAUGA	0.00493 ± 0.0034
AUCACUGUCACCUUCUCUGAGUGAUAAACA	0.0215 ± 0.0056
UUCACUGUCACCUUCUCUGAGAGAUUUAACA	0.498 ± 0.055
UUCACUGUCACCUUCUCUGAGAGAUUAGCA	0.259 ± 0.035
UAGUGUGUCACCUUCUCUGAGAGAUUGACA	0.203 ± 0.037
UAGUGACUCACCUUCUCUGAGAGAUUCACA	0.633 ± 0.12
UACUCUGUCACCAUCUCUGAGAGAUUAACA	0.69 ± 0.036
UAGUGACUCACCUUCUCUGCGAGAUUAACA	0.302 ± 0.034
UACACUGUCACCUUCUCUGACAGAUUAUCA	0.0418 ± 0.0092
UAGUCAGUCACCUUCUCUCAGAGAUUAACA	0.125 ± 0.012
UACUGAGUCACCUUCUCUGAGAGAUAUUGA	0.0546 ± 0.011
AUCACUGUCACCUUCACUGUGAGAUUAACA	0.156 ± 0.011
UAGUCUGUCACCUUCUCUGAGAGAAUAACA	0.365 ± 0.064
UAGUCUGUCACCUACUCUGAGAGAUUAUGA	0.0264 ± 0.0064
UAGACUGUCUCCUUCUCUCAGAGAUUAACA	0.0738 ± 0.0058
UUCACACUCACCUUCUCUGAGAGAUAUUGA	0.0619 ± 0.018
UAGUGUGUGACCUUGUCUGAGAGAUUAACA	0.14 ± 0.021
AUCACUGUCACCUUCUCUGAGAGAUCUAACA	0.358 ± 0.058
UAUACUGUCACCUUCUCUGAGAGAUUAACA	0.767 ± 0.047

Sequence	pre-steady-state target cleavage rate
UAGUCUGGCACCUUCUCUGAGAGAUUAACA	0.177 ± 0.035
UAGUGAGUCACGUUCUCUGUGAGAUUAACA	0.18 ± 0.016
UAGUGAGUCACCUUCUCUGAGAGAUGUAACA	0.388 ± 0.047
UAGUGACACACCUUCAGAGAGAGAUUUUGA	0.00535 ± 0.0047
UAGUGAGUCAGCUUCUCUGAGAGAUAAACA	0.339 ± 0.028
UAGUGUGUCACCGUCUCUGAGAGAUUAACA	0.396 ± 0.042
UAGUGUGUCACCUUCUCUGAGAGAAUUACA	0.173 ± 0.044
UUCAGUGUCACCUUCUCUGAGAGAUUAAGA	0.126 ± 0.029
UAGUGUGUCACCUUCUCUGAGACAUUAACA	0.218 ± 0.028
UUCAGUGUCACGUUCUCUGAGAGAUUAACA	0.599 ± 0.029
UAGUGACAGUGGAAGAGACAGUGUUUAACA	< 0.0001
UAGUGAGUCACCAACUCUGAGAGAUUAAGA	0.0223 ± 0.0065
UAGUGUCUCACCUUCUCUGAGAGAAUAACA	0.26 ± 0.04
UAGUGUGUCACCUUCUCUGAGUGAUAAACA	0.0164 ± 0.0068
UAGUGAGUCACGUUCUCUGAGAGAUUUUGA	0.00437 ± 0.0032
UAGUGAGUCACCUUCUCACAGAGAUUAACA	0.0117 ± 0.0028
UAGUGACAGUGGAACUCUGAGAGAUUAAUCA	< 0.0001
UACACUGUCUCCUUCUCUGAGAGAUUAACA	0.599 ± 0.034
UAGUGUGUCACCUUCUCUGAGAGACUAACA	0.288 ± 0.055
UAGACUGUCACCUUCUGUGAGAGAUUAACA	0.648 ± 0.038
UACACUGUCAGCUUCUCUCAGAGAUUAACA	0.0908 ± 0.01
UAGUGUGUCACCAUUCUCUGAGAGAUUAACA	0.508 ± 0.036
AUCACUGUCACCUUCUCUGAGUGAUUAACA	0.0525 ± 0.0086
UAGUGACUCACCUUCUCUGAGACAUUAUCA	0.0265 ± 0.0081

Sequence	pre-steady-state target cleavage rate
AUCACUGAGUCCUUCUCUGAGAGAUUAACA	0.489 ± 0.035
AUCACUGUCACCUUCUCUGAGAGAUUAAGA	0.183 ± 0.026
UACAGUGUCACCUUCUCUGAGAGAAUAACA	0.479 ± 0.09
UAGUGACUCACCGUUCUCUGAGAGAUUAACA	0.16 ± 0.019
UAGUGUUCACCUUCUCUGAGAGAUUAACA	0.454 ± 0.026
AACACUGUCACCUUCUCUGAGAGAUUAUCA	0.303 ± 0.037
UAGUGAGUGUCCUUCUCUGAGAGAUUAUGA	0.00701 ± 0.003
AUCACUGUCAGCUUCUCUGAGAGAUUAUCA	0.251 ± 0.034
UAGUGACACACCUUGCUCUGAGAGAUUAACA	0.0571 ± 0.011
UAGACGGUCACCUUCUCUGAGAGAUUAACA	0.671 ± 0.028
UAGUGACACAGCUUCUCUGAGUGAUUAACA	0.00956 ± 0.0033
AUCACUGACACCUUCUCUGAGACAUUAACA	0.206 ± 0.025
UAGUGACACACGCUUCUCUGAGAGAUUAACA	0.189 ± 0.021
AUCACUGUCACCUUCUCUGAGACAUUAUCA	0.0223 ± 0.0079
UUCACUCACACCUUCUCUGAGAGAUUAUGA	0.1 ± 0.023
UUCACUGUCAGCUUCUCUGAGAGAAUAACA	0.229 ± 0.037
UAGUGUGUCGCCUUCUCUGAGAGAUUAACA	0.496 ± 0.045
UACAUCUGUCACCUUCUCUGAGAGAUUAACA	0.66 ± 0.027
UACACUGUCACCUUCUCUGAGAGAUAUAGA	0.0276 ± 0.012
UAGUGACUACACCUUCUCUGAGAGAUUAACA	0.565 ± 0.033
UAGUGUGUGACCUUCUCUGAGAGAUUAACA	0.562 ± 0.034
UACACUGUCACCUUCUCUGAGUCAUUAACA	0.00872 ± 0.0023
UUCACUGUCACCUUCUCUGAGAGAUAUAGA	0.0837 ± 0.021
UUCAGUGUCACCUUCUCUCAGAGAUUAACA	0.0996 ± 0.0064
